{
  "source": "PubChem BioAssay AID588342",
  "about": "(National Center for Advancing Translational Sciences (NCATS), 2011)",
  "note": "Screen size: about 360,000 compounds; about 25,000 (6.9%) were called active. This list was built around the results that the source calls inconclusive (neither active nor inactive); the mix of calls is not that of the screen. Calls follow the shape of the dose curve; as a rule, active = well fitted inhibition curve with a large enough effect; inconclusive = small, poorly fitted or top-dose-only effect; inactive = flat fitted curve, though single readings scatter. Where the call is inconclusive, the potency comes from a doubtful curve fit. Potency is read from the fitted curve at half-maximal effect; tags tell the direction and shape of the fitted curve.",
  "data": [
    {"biological_target": "Luciferin 4-monooxygenase (Photinus pyralis) (UniProt P08659)", "sequence (P08659 whole entry, looked up)": "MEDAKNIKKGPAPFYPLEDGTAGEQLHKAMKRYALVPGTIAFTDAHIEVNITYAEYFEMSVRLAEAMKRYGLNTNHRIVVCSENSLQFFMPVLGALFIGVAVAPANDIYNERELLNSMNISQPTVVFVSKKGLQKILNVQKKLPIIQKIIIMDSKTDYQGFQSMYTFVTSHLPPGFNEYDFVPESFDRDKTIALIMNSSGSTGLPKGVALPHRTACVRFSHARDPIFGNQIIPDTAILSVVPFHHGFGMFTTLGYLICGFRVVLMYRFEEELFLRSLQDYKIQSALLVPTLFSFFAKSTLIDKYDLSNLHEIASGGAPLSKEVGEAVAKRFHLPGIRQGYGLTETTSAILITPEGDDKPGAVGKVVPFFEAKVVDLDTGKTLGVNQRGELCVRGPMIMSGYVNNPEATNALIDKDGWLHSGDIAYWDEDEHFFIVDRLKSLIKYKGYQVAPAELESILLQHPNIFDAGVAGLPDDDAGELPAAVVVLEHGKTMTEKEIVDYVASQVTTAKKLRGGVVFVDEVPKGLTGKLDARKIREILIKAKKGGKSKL", "test": "qHTS profiling assay for firefly luciferase inhibitor/activator using purifed enzyme and Km concentrations of substrates (counterscreen for miR-21 project); also: nearly all actives have a fitted effect of over 55% in size", "settings": "purified FLuc, luminescence inhibition; series mostly up to 57.5 µM", "procedure,_shortened": "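Biochemical qHTS of compounds, final roughly 60 µM downward over six points, against 10 nM purified firefly luciferase using Km concentrations of substrates (10 uM D-luciferin, 10 uM ATP) in Tris acetate pH 7.5 buffer; luminescence output.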", "values": [
      {"smiles": "COC(=O)c1ccc(N2NC(=O)/C(=C/c3ccc(-c4ccc(Cl)c(C(=O)O)c4)o3)C2=O)cc1", "Potency": "active: 10.7 µM"},
      {"smiles": "COc1ccc(-c2csc3nc(-c4ccccc4OC)oc(=O)c23)cc1", "Potency": "inconclusive: 12 µM [inhibitor, partial curve, poor fit]"},
      {"smiles": "COc1cccc(C(=O)Nc2cc(-c3cn4cccnc4n3)ccc2C)c1OC", "Potency": "inactive"},
      {"smiles": "O=C(Cn1cc2c(n1)CCCCC2)NC1CCCCCC1", "Potency": "inconclusive: 26.9 µM [inhibitor, partial curve, poor fit]"},
      {"smiles": "O=C(COC(=O)c1cc(=O)[nH]c2ccccc12)c1cccs1", "Potency": "active: 12 µM"},
      {"smiles": "COC(=O)c1ccc(/C=N/N2C(C)CCCC2C)cc1", "note": "(stereo not given)", "Potency": "inconclusive: 26.9 µM [inhibitor, single point]"},
      {"smiles": "CCOc1ccc(-c2csc(NNC3=NCCCCC3)n2)cc1", "Potency": "inconclusive: 30.1 µM [inhibitor, partial curve, poor fit]"},
      {"smiles": "CC(=O)c1sc(Nc2nc3cc4c(cc3s2)OCO4)nc1C", "Potency": "active: 3.79 µM"},
      {"smiles": "O=C(CCc1ccc(CCC(=O)c2cccs2)s1)c1cccs1", "Potency": "inconclusive: 37.9 µM [inhibitor, partial curve, poor fit]"},
      {"smiles": "Cc1nc(-c2ccc3c(c2)OCCCO3)cs1", "Potency": "active: 7.57 µM"},
      {"smiles": "O=C(CCc1nc2ccccc2s1)Nc1ccccc1", "Potency": "inconclusive: 26.9 µM [inhibitor, partial curve, poor fit]"},
      {"smiles": "CCC(C)C(=O)Nc1nnc(-c2cccs2)s1", "note": "(stereo not given)", "Potency": "inconclusive: 21.3 µM [inhibitor, partial curve, poor fit]"},
      {"smiles": "Cc1ccc(-c2cc(C(=O)NCc3ccco3)c3ccccc3n2)s1", "Potency": "active: 12 µM"},
      {"smiles": "CCOC(=O)CSc1nc2sc3c(c2c(=O)[nH]1)CC(C)(C)OC3", "Potency": "inconclusive: 30.1 µM [inhibitor, partial curve, poor fit]"},
      {"smiles": "O=C(Nc1ccc(C(=O)O)cc1)/C(=C\\C=C\\c1ccccc1)NC(=O)c1ccc(Br)cc1", "Potency": "inconclusive: 26.9 µM [inhibitor, partial curve, poor fit]"},
      {"smiles": "Cc1ccc(NC(=O)c2c3c(nc4ccccc24)CCC3)cc1S(=O)(=O)N(C)C", "Potency": "inconclusive: 26.9 µM [inhibitor, partial curve, poor fit]"},
      {"smiles": "O=[N+]([O-])c1cccc(S(=O)(=O)Nc2ccc(-c3ccc(N4CCOCC4)nn3)cc2)c1", "Potency": "active: 21.3 µM"},
      {"smiles": "Cc1cc2nc(SCC(=O)O)nc(C)c2cc1C", "Potency": "inconclusive: 23.9 µM [inhibitor, partial curve, poor fit]"},
      {"smiles": "O=C(Nc1cccc(S(=O)(=O)N2CCOCC2)c1)c1ccc2c(=O)n3c(nc2c1)CCCCC3", "Potency": "inconclusive: 21.3 µM [inhibitor, single point]"},
      {"smiles": "COc1cccc(/C=C2/Sc3ccc(C(=O)NCCN4CCCCCC4)cc3NC2=O)c1", "Potency": "inconclusive: 23.9 µM [inhibitor, single point]"},
      {"smiles": "O=C(NC1CCCC1)c1cc2c(=O)n3ccccc3nc2s1", "Potency": "inconclusive: 21.3 µM [inhibitor, partial curve, poor fit]"},
      {"smiles": "COCc1nn2c(N)c(-c3ccccc3)cnc2c1-c1ccccc1", "Potency": "active: 0.849 µM"},
      {"smiles": "O=C(COC(=O)CCC(=O)c1ccc(F)cc1)Nc1cccc(S(=O)(=O)N2CCCC2)c1", "Potency": "inconclusive: 26.9 µM [inhibitor, single point]"},
      {"smiles": "O=C1C(Cl)=C(Nc2ccc(F)cc2)C(=O)N1CCc1ccccc1", "Potency": "inconclusive: 7.57 µM [inhibitor, partial curve]"},
      {"smiles": "O=C(NN=C1CCCCCC1)c1ccc2c(c1)OCO2", "Potency": "inconclusive: 19 µM [inhibitor, partial curve, poor fit]"},
      {"smiles": "CN=c1scc(-c2ccc(F)cc2)n1/N=C/c1ccc(O)c(O)c1", "Potency": "active: 0.675 µM"},
      {"smiles": "CN(C)c1nc(-c2ccc([N+](=O)[O-])cc2)cs1", "Potency": "active: 12 µM"},
      {"smiles": "COc1ccc(/C(C)=N/NC(=O)c2ccc(NS(=O)(=O)c3cccs3)cc2)cc1", "Potency": "active: 21.3 µM"},
      {"smiles": "O=C(O)c1ccc2c(c1)C(=O)N(c1cccc(S(=O)(=O)Nc3cccc(C(F)(F)F)c3)c1)C2=O", "Potency": "inconclusive: 37.9 µM [inhibitor, single point]"},
      {"smiles": "CCOCCCNC(=S)N1CCC(NC(=O)c2ccco2)CC1", "Potency": "inconclusive: 33.8 µM [inhibitor, single point]"},
      {"smiles": "CC(=O)c1ccc(NC(=O)c2onc(C)c2Cl)cc1", "Potency": "inconclusive: 16.9 µM [inhibitor, partial curve]"},
      {"smiles": "Cc1cc(C)n2nc3nc4c(cc3c2n1)CCCC4", "Potency": "inconclusive: 26.9 µM [inhibitor, partial curve, poor fit]"},
      {"smiles": "COc1cccc(/C=C2\\CCC(C3CCCC3)C2=O)c1OC", "note": "(stereo not given)", "Potency": "active: 1.07 µM"},
      {"smiles": "CCOC(=O)C1CCCN(S(=O)(=O)c2cnc(Cl)c(Br)c2)C1", "note": "(stereo not given)", "Potency": "inactive"},
      {"smiles": "O=C(COC(=O)CSc1nnc(-c2ccc(Cl)cc2)o1)NCc1ccc2c(c1)OCO2", "Potency": "inconclusive: 37.9 µM [inhibitor, partial curve, poor fit]"},
      {"smiles": "COc1ccc(C(=O)c2ccccc2)c(O)c1", "Potency": "inconclusive: 21.3 µM [inhibitor, partial curve, poor fit]"},
      {"smiles": "C=CCn1c(/N=C/c2ccc(OC)cc2)nc2ccccc21", "Potency": "active: 0.426 µM"},
      {"smiles": "O=C(Nc1ccc2c(c1)Cc1ccccc1-2)c1cccnc1", "Potency": "active: 6.75 µM"},
      {"smiles": "CCC(Sc1nc2nccnc2c(=O)n1Cc1ccccc1Cl)C(=O)NC1CCCCC1", "note": "(stereo not given)", "Potency": "inactive"},
      {"smiles": "COc1ccc(/C(N)=N/OC(=O)CCCc2ccccc2)cc1OC", "Potency": "inconclusive: 26.9 µM [inhibitor, partial curve, poor fit]"},
      {"smiles": "O=S(=O)(c1ccc(C2CCCCC2)cc1)N1CCN(c2cc(Cl)ccc2Cl)CC1", "Potency": "inactive"},
      {"smiles": "CC(C)c1cc(C(=O)N/N=C/c2cccnc2)cs1", "Potency": "inconclusive: 10.7 µM [inhibitor, single point]"},
      {"smiles": "CCOC(=O)C1CCN(CC(=O)Nc2ccc(S(=O)(=O)N3CCC(C)CC3)cc2)CC1", "Potency": "inactive"},
      {"smiles": "Cc1ccc(CNC(=O)CSCc2ccccc2C)cc1", "Potency": "inconclusive: 21.3 µM [inhibitor, partial curve, poor fit]"},
      {"smiles": "Cc1cc(C(=O)Nc2cccc(O)c2)c(C)o1", "Potency": "inconclusive: 26.9 µM [inhibitor, partial curve, poor fit]"},
      {"smiles": "CCNc1cc(=O)n(C)c(=O)n1C", "Potency": "inactive"},
      {"smiles": "COc1cccc(/C=N/NC(=S)Nc2cccc(C(=O)O)c2)c1O", "Potency": "active: 0.19 µM"},
      {"smiles": "COc1ccc(C(=O)Nc2ccc(-c3nc4ncccc4o3)cc2C)cc1Br", "Potency": "inactive"},
      {"smiles": "CCN(CC)c1ccc(C2C(C(=O)OC)=C(C)NC(C)=C2C(=O)OC)cc1", "Potency": "inactive"},
      {"smiles": "COc1ccc(NC(=O)c2c(NCc3ccc(C)o3)sc3c2CCCCC3)c(OC)c1", "Potency": "inconclusive: 12 µM [inhibitor, partial curve, poor fit]"},
      {"smiles": "O=C(C1COc2ccccc2O1)N1CCN(c2nc3c(F)cc(F)cc3s2)CC1", "note": "(stereo not given)", "Potency": "inconclusive: 9.53 µM [inhibitor, partial curve]"},
      {"smiles": "COc1ccc(CCNC(=O)COC(=O)CCC(=O)c2ccc(F)cc2)cc1OC", "Potency": "inactive"},
      {"smiles": "CCC(C(=O)O)N1C(=O)/C(=C/c2cccn2C)SC1=S", "note": "(stereo not given)", "Potency": "inconclusive: 37.9 µM [inhibitor, partial curve, poor fit]"},
      {"smiles": "CCCSc1nnc(-c2ccccc2N)c(=O)[nH]1", "Potency": "inconclusive: 26.9 µM [inhibitor, single point]"},
      {"smiles": "CCOC(=O)c1cc(-c2ccccc2C)n(CC2CC(c3cccc([N+](=O)[O-])c3)=NO2)n1", "note": "(stereo not given)", "Potency": "inactive"},
      {"smiles": "O=C(CCl)Nc1cc(-c2ccccc2)nn1-c1ccccc1", "Potency": "inconclusive: 21.3 µM [inhibitor, partial curve, poor fit]"},
      {"smiles": "COc1ccc(C)cc1NC(=O)c1ccc2c(c1)OCO2", "Potency": "inconclusive: 16.9 µM [inhibitor, single point]"},
      {"smiles": "CCN(CC)C(=O)Cn1nnc(-c2ccc(S(C)(=O)=O)cc2)n1", "Potency": "inactive"},
      {"smiles": "COc1ccc(CCCc2nnc(SCC(=O)Nc3cc(F)ccc3C)o2)cc1", "Potency": "inconclusive: 37.9 µM [inhibitor, single point]"},
      {"smiles": "CCOC(=O)N1CCN(C(=O)c2ccc3c(c2)N(C)C(=O)/C(=C\\c2ccc(OCC)c(OC)c2)S3)CC1", "Potency": "inconclusive: 37.9 µM [inhibitor, partial curve, poor fit]"},
      {"smiles": "CN(C)C(=S)Nc1ccc2c(c1)OCO2", "Potency": "inconclusive: 37.9 µM [inhibitor, partial curve, poor fit]"},
      {"smiles": "COc1ccc2cc(S(=O)(=O)n3cnc(C)c3)ccc2c1", "Potency": "inconclusive: 21.3 µM [inhibitor, single point]"},
      {"smiles": "O=C(CSc1nc2ccccc2o1)Nc1ccc(N2CCOCC2)cc1", "Potency": "inconclusive: 13.5 µM [inhibitor, partial curve, poor fit]"},
      {"smiles": "Nc1nc(N)nc(-c2ccc(Cl)cc2)n1", "Potency": "active: 15.1 µM"},
      {"smiles": "COC(=O)c1cc(NS(=O)(=O)c2ccc3c(c2)OCCO3)ccc1Cl", "Potency": "inconclusive: 12 µM [inhibitor, partial curve, poor fit]"},
      {"smiles": "CN1CCN(c2ccc(NC(=O)c3sc4ccccc4c3Cl)cc2)CC1", "Potency": "active: 1.9 µM"},
      {"smiles": "O=C(Nc1ccccc1)n1ccc(-c2ccc(-n3ccnc3)cc2)n1", "Potency": "inconclusive: 23.9 µM [inhibitor, partial curve]"},
      {"smiles": "O=C(Nc1ccccc1F)C(=O)Nc1cccc2ccccc12", "Potency": "inconclusive: 7.57 µM [inhibitor, full curve]"},
      {"smiles": "COc1ccc(C(=O)O)cc1S(=O)(=O)NCCN(C)C", "Potency": "inactive"},
      {"smiles": "COc1ccc(NC(=O)c2cc(Cl)ccc2NC(=O)c2ccco2)c(OC)c1", "Potency": "inconclusive: 7.57 µM [inhibitor, partial curve, poor fit]"}
    ]}
  ]
}
